# Experimental data from ChEMBL document CHEMBL4888484, “Replenishing the malaria drug discovery pipeline: Screening and hit evaluation of the MMV Hit Generation Library 1 (HGL1) against asexual blood stage Plasmodium falciparum ,using a nano luciferase reporter read-out” (2022).
# The campaign covered roughly 150,000 compounds. About 540 (0.36%) showed an effect of 50% or more. The list shows a part of the results.
# Test system: Plasmodium falciparum
# Experiment: Primary screen in NF54 nanoGlo assay, in single point, at 2uM, 72h; a lower Z score goes with more inhibition
# Type: functional, Erythrocyte
# Conditions: timepoint 72 hour
SMILES,% Inhibition,Z score
COc1cc(-c2nc(Cn3cnc(C(C)=O)n3)c(C)o2)cc2c1OCO2,-8%,1.04
Cc1cc(C)n(-c2ccc(CN(C)[C@H]3CCS(=O)(=O)C3)cc2)n1,31%,-3.19
CCNc1cc(CNC(=O)Nc2c(C)nn(C)c2C)ccn1,-11%,2.12
Cc1nccn1-c1ncc(NC(=O)Nc2ccc3c(c2)OCO3)cn1,25%,-4.77
CC(C1Cc2ccccc2O1)N(C)Cc1nccn1S(=O)(=O)N(C)C (stereo unspecified),34%,-4.61
COc1cccc(NC(=O)C23CCCN2CCC3)c1,-8%,1.16
COc1ccc(CONS(=O)(=O)c2ccc(NC(C)=O)cc2)cc1Cl,-15%,1.99
CCN(CC)c1ccc(C(=O)Nc2ccc3nc(N4CCCC4)cc(C)c3c2)cc1,73%,-6.69
Cc1ccccc1C(=O)N1CCCc2cnc(N3CCOCC3)nc21,-2%,0.21
CCn1cnnc1CCNc1ccc2cc[nH]c2n1,-13%,2.34
CC(C)CCNC(=O)Nc1ccc(N2CCc3sccc3C2)cc1,11%,-2.01
Cc1ccc2c(c1F)N(C(=O)c1cnc3sc(C)c(C)n3c1=O)CCC2,-4%,0.38
CCOC(=O)NCCc1ccc(O)cc1,-5%,0.56
C#Cc1cncc(C(=O)Nc2ccc(N3C(=O)c4ccccc4C3=O)c(Cl)c2)c1,8%,-1
Cc1noc(-c2ccc(S(=O)(=O)NCc3ccccn3)o2)c1C,-7%,1.34
CC(C)c1noc(N2CC[C@H](c3nccn3C)C2)n1,30%,-3.38
CN1CCN(Cc2ccc(C(=O)NC3(c4cc(F)ccc4F)CC3)o2)CC1,-10%,1.68
O=C(NCc1ccncn1)c1ccc(F)c(O)c1,1%,-0.08
O=C(NCc1ccccc1Cl)c1n[nH]c2c1CCc1ccccc1-2,6%,-0.57
C[C@@H](C1CC1)N(C(=O)c1n[nH]c2ccccc2c1=O)C1CC1,1%,-0.08
CCOc1ccccc1C(=O)NC[C@]1(O)CCc2ccccc2C1,-20%,2.57
CC(C)N[C@H]1COCC[C@@H]1Oc1ccc(CO)cc1,6%,-1.04

SMILES,% Inhibition,Z score
C[C@@H](Cc1ccsc1)N(C)C(=O)Nc1ccc2cc[nH]c2c1,-5%,0.63
Cc1nn(C)c(C)c1CCC(=O)N(C)CCc1noc(C2CC2)n1,-4%,0.69
Cn1nccc1CCn1cc(C#N)cn1,-15%,1.23
Cc1nccn1[C@@H](C)Cc1nc(C2CC2)nn1Cc1c(F)cccc1Cl,-7%,1.09
CCN=C(NCC)NCc1cccc(C)c1,-1%,0.09
O=C(c1ccc(-n2c(-c3ccccc3)cc3c2CCCCC3)cc1)N1CCCCCC1,14%,-2.63
Cc1cccc(CN2CCC[C@@]3(CCN(C(=O)c4ccnn4C)C3)C2)c1,-5%,0.9
COc1cc([C@@H](NC(=O)c2ccc(-n3cnnn3)cc2)C(=O)Nc2c(C)cccc2C)ccc1O,-14%,1.87
O=C(NCc1ccnc(-c2ccsc2)c1)Nc1cccs1,2%,-0.22
c1ccc(-n2ncc(CN3CCC4(CC3)OCCO4)n2)cc1,-8%,1.04
N#Cc1cccc(-c2c[nH]c(CNC(=O)c3ccn(-c4cccc(F)c4)n3)n2)c1,10%,-1.4
CC(C)(C)C(=O)NOCc1ccccn1,-11%,1.67
CC1CN(c2ccccc2)CCN1C(=O)CC1(c2ccccc2)CC(=O)N(Cc2cccnc2)C1=O (stereo unspecified),-3%,0.33
CCc1nnc(CN(C)C(=O)CCn2cnc3ccccc3c2=O)o1,-3%,0.36
CCN1C(=O)c2cc(C(=O)NCc3cccc(Br)c3)nn2C[C@@]1(C)C(=O)NC1CCCC1,18%,-2.15
N#CC1(CC(=O)N2Cc3ccccc3-c3ccccc32)CC1,-9%,1.1
O=S(=O)(CCN1CCC[C@@H]1CO)c1ccccc1,-14%,2.01
CCc1nc(C)c(CNCc2cccc(CO)c2)[nH]1,0%,0.01
CCO[C@@H](C)c1noc(CN2CCc3cccc(C)c32)n1,-6%,0.96
O=C(NCCOC1CCCCCC1)[C@@H]1CCCc2c(O)cccc21,0%,0
CC(C)(C)n1nc2nc(NCCc3ccccc3)nc(-c3ccccc3)c2c1N,-6%,0.86
CCN(Cc1ccncc1)C1CN(S(=O)(=O)c2ccccc2)C1,-4%,0.73

SMILES,% Inhibition,Z score
CC(C)C[C@H](CO)NC(=O)c1cccn1C,-2%,0.28
Nc1cncc(-c2n[nH]c3cccc(Cl)c23)c1,-20%,1.94
N#Cc1cccc(CNc2nnc3n2CCCC3)c1,-12%,2.3
CCCC(O)(CCC)CC(=O)N1CC[C@]2(CCOC2)C1,-2%,0.21
CCc1cnc(C)nc1N1CCOc2ccccc2C1,-9%,1.44
Cc1cc(C2(NC(=O)Nc3cc(-n4cccn4)ccc3C)CCOCC2)on1,-9%,1.6
CCOC(=O)c1csc([C@@H]2CCCN2Cc2ncc[nH]2)n1,-5%,0.73
CCCn1cc(NC(=O)NCc2nnc3ccccn23)nn1,5%,-0.68
c1cncc(-c2nc3nccc(-c4cccnc4)n3n2)c1,-9%,1.15
COCCN(Cc1c[nH]nc1-c1ccc(F)cc1)C[C@H]1CCCO1,-14%,1.97
Nc1ccc([C@H]2CCCc3nonc32)c2nonc12,4%,-0.5
CNC(=O)c1ccc(CN[C@H]2CCCN(c3ccc(C#N)cc3F)C2)cc1,1%,-0.15
CO[C@@](F)(C(=O)NCc1ccco1)C(F)(F)F,-17%,3.24
Cc1ccccc1C(=O)NCc1nc(C(=O)N2CCCC2)c(C)o1,-10%,1.31
Nc1nc2c(c(NC3CC3)n1)CCN(C(=O)c1ncoc1C1CC1)CC2,4%,-0.71
CCc1ccc(CNCc2c(C(=O)N3CCCCCCC3)nc3ccc(Cl)cn23)nc1,-15%,1.59
CCOc1ccc(S(=O)(=O)Nc2ccccc2C(=O)Nc2c(C)n(C)n(-c3ccccc3)c2=O)cc1,-3%,0.36
CCC(=O)N1CCc2c(C(=O)NCc3ccc(OC(C)C)cc3)cccc21,-4%,0.46
COc1cccc(CCn2ccnc2-c2cc3ccc(F)cc3[nH]c2=O)c1,-2%,0.26
Cc1cccc(Cl)c1S(=O)(=O)Nc1cc2n(n1)CCCC2,1%,-0.14
C=CCCS(=O)(=O)Nc1cccc(C)c1C(C)=O,5%,-0.97
Cc1ccc([C@@H](O)CNS(=O)(=O)c2c(C)noc2C)o1,-21%,3.63

SMILES,% Inhibition,Z score
COc1cc(C#N)cc(Br)c1OC(C)C,8%,-0.86
O=C(NCC1(O)CCOCC1)c1ccc(Br)o1,4%,-0.55
Cc1nc2cc(-c3ccc(NS(C)(=O)=O)cc3)ccc2o1,-9%,1.04
C[C@@H](COCC(F)(F)F)NC(=O)c1cc(Cl)sc1S(N)(=O)=O,-26%,3.03
CC(C)(C)NC(=O)NCc1cccnc1-c1cccnc1,-5%,0.75
CCc1noc(C)c1C(=O)NC1CCN(C(C)C)CC1,-15%,2.84
O=C(C1CCCC1)N1CC[C@@]2(O)CCN(CCCc3cccnc3)C[C@H]2C1,-1%,0.25
COC(=O)c1nc2c(nc1N)CC(C)(C)OC2,9%,-1.53
CCCC(=O)NC1C(c2ccc(N(C)C)cc2)Nc2ncnn2C1c1ccccc1 (stereo unspecified),7%,-0.83
COc1ccccc1Nc1cc(Nc2ccccc2OC)n(C(=O)c2cccs2)n1,-5%,0.78
Cc1ncoc1CNS(=O)(=O)N1CC2CCC1C2 (stereo unspecified),-4%,0.78
O=C(COc1ccccc1)Nc1ccccc1C(=O)NCCN1CCOCC1,-5%,0.55
CC(C)n1nc2c(c1NC(=O)NCC(F)(F)F)CCC2,2%,-0.2
C[C@H]1CN(C(=O)C2(CF)CCC2)CC(=O)N1,-2%,0.29
C[C@H](NC(=O)CCCn1ccnc1)c1cccc(Cl)c1Cl,-14%,1.92
CC1OCCC1(O)CNC(=O)C1CC12CCCC2 (stereo unspecified),-4%,0.63
CC1CCC(C(=O)Nc2ccccn2)C2C(=O)N(c3ccccc3)C(=O)C12 (stereo unspecified),-17%,2.68
COc1ccc(CCC(=O)N2CCCC[C@H]2c2nn(C)c3c2COCC3)cc1,-15%,1.47
O[C@]1(CN2CCCC2)COCCN(c2nc(-c3ccccc3)no2)C1,18%,-2.31
CCOc1ccc(C(=O)N2CC[C@@]3(C2)C(=O)Nc2ccccc23)cc1,-4%,0.66
CCCCc1noc([C@H](C)Nc2cccc(N3CCCC3=O)c2)n1,7%,-0.9
COc1ccc(CNC(=O)c2ccc(Oc3nccnc3N3CCOCC3)cc2)cc1OC,9%,-1.38
